From paper PMC12040169 (PLOS Biology, 2025) come the findings set out here.

Some of the results follow.

For this assay, the system named is T1, C. trachomatis L2/434/Bu expressing GFP (CTL2-GFP).
T1 construct: L2/434/Bu GFP intracellular growth in HeLa cells
Also on record: species or system HeLa; C. trachomatis total inclusion area by high-content imaging, normalised to DMSO. As to conditions: total inclusion area; 28.5 h, 10 µM; inhibitor. In a few lines:
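High-content imaging followed the bulk GFP/resorufin measurement: fixed, Hoechst-stained cells were scored for GFP inclusions and host nuclei per well. Total inclusion area and count served as growth proxies, nuclei number as the viability proxy. MIC calculation matched the bulk assay.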
Take `Cc1cc(N2CCN(C(=O)OC(C)(C)C)CC2)nc(N)n1` [CBK001843]: the “% of control remaining” value was determined as 66.1128.
For the molecule `COc1ccc(C)cc1N(CC(=O)Nc1ccccc1C(=O)O)S(C)(=O)=O` [CBK264009], the “% of control remaining” value amounted to 122.743.
Then `CC(C)C(=O)N1CC2(CCN(Cc3nc4ccccc4[nH]3)CC2)c2ccccc21` [CBK126719], with 99.6742; and `CN1C(=O)CC2(C1=O)C(=O)N(CCCCOc1ccccc1)c1ccc(F)cc12` (stereo not shown) [CBK075408], with 106.584; and `Nc1nnc(SC2c3cccc4cccc(c34)C2NS(=O)(=O)c2ccc(Cl)cc2)s1` (stereo not shown) [CBK266373], with 114.837.
Then `c1ccc(CN2CCN(CCN3CCn4c3nc3ccccc34)CC2)cc1` [CBK265472B], with 88.38; and `CCOc1ccccc1NC(=O)CSc1nc(N)cc(O)n1` [CBK268075], with 105.478.
The result for `CCCCNC(=O)CSc1ncccc1C(=O)NCc1cccnc1` [CBK071590] reads 101.461; that for `COc1cc2ncc(C(=O)NCc3cccs3)c(O)c2cc1OC` [CBK159998], 50.0079.
On to `O=c1n(C(c2ccccc2)c2ccccc2)ccn1S(=O)(=O)c1cccc(Cl)c1` [CBK106615], for which the “% of control remaining” value is reported as 99.7955.
In the case of `O=C(NC1CCN(Cc2ccccc2)CC1)c1cnc(-c2ccc(Cl)cc2)c(-c2cccnc2)c1` [CBK037602], the “% of control remaining” value is 98.0946.
On to `COc1cccc2cc(C(=O)NCCCSC)oc12` [CBK149793], for which the “% of control remaining” value amounted to 97.6447.
Take `O=c1[nH]c(=O)n([C@H]2C[C@@H](O)[C@@H](CO)O2)cc1CCO` [CBK201239]: the “% of control remaining” value was found to be 99.4147.
Regarding `CC(C)Nc1cncc(OCCCN(C)C)n1` [CBK115600], the “% of control remaining” value was 99.2318.
Turning to `CC(CNC1CCCC1)C(O)(c1ccccc1)c1ccccc1` (stereo not shown) [CBK012237C], the “% of control remaining” value was found to be 49.2065.
For `CCCc1[nH]nc(O)c1Cc1ccccc1C(F)(F)F` [CBK075037], the “% of control remaining” value amounted to 78.8782.
Take `COC(=O)COc1ccc(S(=O)(=O)N2CCC(C(N)=O)CC2)cc1` [CBK265993]: the “% of control remaining” value amounted to 132.489.
The result for `CC(C)[C@@H](CO)Nc1cncc(-c2ccc3ccccc3c2)n1` [CBK065546] reads 97.0868.
Then `Nc1nnc(CCS(=O)(=O)c2ccc(Br)cc2)s1` [CBK026286], with 51.2411; and `O=C(O)c1ccccc1-c1ccc(/C=C2\S/C(=N\c3ccccc3)N(c3ccccc3)C2=O)o1` [CBK262566], with 99.7184.
Consider `CCOC(=O)C(NCCc1ccc(OC)c(OC)c1)(NC(=O)c1ccco1)C(F)(F)F` (stereo not shown) [CBK013715], for which the “% of control remaining” value came out at 58.4158.
On to `COc1ccc(S(=O)(=O)NCCNC(=O)c2cc(Br)cnc2N(C)S(C)(=O)=O)cc1` [CBK076477], for which the “% of control remaining” value was 84.5392.
As to `CN(C)C(CNc1nccnc1-c1ccccc1F)c1cccnc1` (stereo not shown) [CBK037290], the “% of control remaining” value turned out to be 74.0077.
With `CCNC(=O)Nc1ccc(-c2ccc3c(c2)OCCCO3)c2ccccc12` [CBK083726], the “% of control remaining” value stood at 94.5582.
As for `COc1ccc(CCN(Cc2cccnc2)CC(O)COc2cccc3c2CCCC3)cc1` (stereo not shown) [CBK024545T], the “% of control remaining” value was 83.222.
Then `Cn1c(=O)c2c(nc(CN3CCN(C(=O)c4ccco4)CC3)n2CCc2ccccc2)n(C)c1=O` [CBK269278], with 108.133; and `COc1cc(C(=O)N2CCC3(CC2)CC(=O)c2cc(-c4ccc(N(C)C)cc4)ccc2O3)cc(OC)c1C` [CBK170663], with 134.956.
Take `CCn1nc(C)c(C(C)NC(=O)c2ccnn2C(F)F)c1C` (stereo not shown) [CBK281535]: the “% of control remaining” value was found to be 93.1472.
The result for `CC(Oc1ccc2c(c1)OCO2)C(=O)NNC(=O)Nc1cccc(C(F)(F)F)c1` (stereo not shown) [CBK266922] reads 120.493; that for `CC1CNCCN1C(=O)c1ccnc(N2CCN(C)CC2)c1` (stereo not shown) [CBK304122], 98.7675; that for `O=C(COc1ccc(S(=O)(=O)N2CCCC2)cc1Cl)NCC1CCCO1` (stereo not shown) [CBK268243], 100.265.
For the molecule `Clc1ccc(/C=N/Nc2nnn[nH]2)c(Cl)c1` [CBK262034], the “% of control remaining” value came out at 108.642.
Consider `CCCN1CCC(CNC(=O)c2cc(C3CCCCC3)no2)CC1` [CBK283297], for which the “% of control remaining” value was found to be 98.0075.
Then `CC1(C)C(=O)OC(C(=O)c2ccc(Br)cc2)C(C)(C)C1=O` (stereo not shown) [CBK264600], with 107.292; and `O=C(Nc1cccnc1)c1ccnc(Cl)c1` [CBK089829], with 68.2729.
As for `Cc1cc(N(C)C)cc(C2CCCN(C(=O)C3CCC3)C2)n1` (stereo not shown) [CBK282004], the “% of control remaining” value stood at 108.159.
Then `CN1CCC(Cc2nc(-c3cccc(OC(F)F)c3)n(CCO)n2)CC1` [CBK307294], with 76.9103; and `CSCCN(C)c1nc2c(c(=O)[nH]1)Cc1ccccc1OC2` [CBK307523], with 85.6843.
Then `CN(C)CC(=O)N1Cc2cccc3c2c(cn3S(=O)(=O)c2ccccc2)C1` [CBK155548T], with 86.0781; and `CN(C)c1cccc(-c2nc(-c3ccc(C#N)cc3)cnc2N)c1` [CBK064049], with 89.123.
The result for `CCOC(=O)N[C@@H](CC1CCCCC1)C(=O)NCCc1ccc(S(N)(=O)=O)cc1` [CBK015131] reads 103.765.
On to `c1ccc(Cn2c(CN3CCCC3)nc3ccccc32)cc1` [CBK269612], for which the “% of control remaining” value came out at 96.8121.
In the case of `CCN(CC)C(=O)Cn1ncc2c3oc(C)cc3n(C(C)C)c2c1=O` [CBK282848], the “% of control remaining” value is 94.6436.
`O=C(C[C@@H]1CCNC[C@@H]1Cc1cc(-c2ccccc2)on1)N1CCN(c2ccccn2)CC1` [CBK289150]: the “% of control remaining” value is listed as 84.9093.
Then `O=S(=O)(Nc1nc2ccccc2nc1Nc1ccccc1)c1ccccc1` [CBK260953], with 96.8447; and `Cc1cccc2cnc(C3CCN(C(=O)c4cnn(C)c4C)CC3)cc12` [CBK285196], with 107.102; and `O=C(CSc1nc(-c2cccc([N+](=O)[O-])c2)cs1)NCC1CCCO1` (stereo not shown) [CBK268020], with 107.592.
On to `Cc1ccccc1C(=O)NC(NCC1CCCO1)C(Cl)(Cl)Cl` (stereo not shown) [CBK262273], for which the “% of control remaining” value is reported as 101.459.
In the case of `CC1(C)SC2c3ccccc3C(=O)N2[C@@H]1C(=O)N1CCC(C(=O)O)CC1` (stereo partly shown) [CBK286760], the “% of control remaining” value came to 123.353.
As to `Cc1ccc([N+](=O)[O-])cc1NS(=O)(=O)Cc1ccc(Cl)cc1` [CBK111359], the “% of control remaining” value worked out at 101.862.
Then `CCCNc1nc(Nc2ccc(C)cc2)nc(N2CCOCC2)n1` [CBK266664], with 98.2508; and `Cc1c(-c2cccc(C(=O)N(CCO)C3CCS(=O)(=O)C3)c2)cnn1C` (stereo not shown) [CBK307621], with 37.6019.
For the molecule `O=C(Oc1ccc2c(=O)c(Oc3ccc(-c4ccccc4)cc3)coc2c1)c1cccnc1` [CBK264479], the “% of control remaining” value is reported as 88.8563.
Then `O=C1CCCN1CCC1CCN(c2nccc(CCC(F)(F)F)n2)CC1` [CBK307534], with 58.8312.
`COc1cccc(/C=C\c2onc(C)c2[N+](=O)[O-])c1OCC(=O)O` [CBK269063]: the “% of control remaining” value worked out at 85.9526.
Then `O=C1N=C(NC2CCCCCC2)SC1C(=O)N1CCCCCC1` (stereo not shown) [CBK085513], with 93.7839; and `COc1ccc(C2C(C(=O)c3ccc(C)cc3)=C(O)C(=O)N2CCN(C)C)cc1OC` (stereo not shown) [CBK264463], with 116.945; and `Cc1oc2ccc(O)cc2c1C(=O)NC(C)(C)CN1CCCC(C)C1` (stereo not shown) [CBK282601], with 114.466.
The result for `CCc1c(-c2cccc(C(=O)N3CCS(=O)(=O)CC3)c2)cnn1C` [CBK307487] reads 76.1174; that for `CCCn1c(Nc2nc3ccccc3n2C)nc2ccccc21` [CBK268310], 85.7147; that for `COC(=O)C1C(=O)c2cc3c(cc2C1c1cc(OC)c(OC)c(OC)c1)OCO3` (stereo not shown) [CBK200099], 5.412.
As for `Cc1ncsc1CCOc1cc(C(F)(F)F)ccn1` [CBK115785], the “% of control remaining” value turned out to be 83.426.
With `NC(=O)CC1Nc2cccc3cccc(c23)NC1=O` (stereo not shown) [CBK267560], the “% of control remaining” value was 93.1837.
The result for `CC(C)CNS(=O)(=O)c1ccc(CCC(=O)O)cc1` [CBK287107] reads 93.7611; that for `c1nnc(SCc2ccc(CSc3nnc[nH]3)cc2)[nH]1` [CBK263282], 101.291.
As for `COc1ccc(CNC(=O)NC(=O)C2CCN(CCc3c[nH]c4ccccc34)CC2)c(OC)c1` [CBK034864], the “% of control remaining” value is recorded as 96.0488.
In the case of `COc1cncc(-c2cc(Nc3cccc(OC)c3OC)ncn2)c1` [CBK090728], the “% of control remaining” value is 70.5458.
As to `O=C(NCc1ccccn1)C1CC(=O)N(c2ccccc2)C1` (stereo not shown) [CBK270175], the “% of control remaining” value came to 84.1992.
With `CN(C)CCCn1c(NCc2ccc3c(c2)OCO3)nc2ccccc21` [CBK278273C], the “% of control remaining” value worked out at 98.3969.
Then `Cc1ncccc1Oc1ccc(NC(=O)N2CCc3ccccc3CC2)cn1` [CBK018383], with 83.9251; and `COc1ccc(NC(=O)c2cc(-c3cccc(Cl)c3)nc3ccccc23)c([N+](=O)[O-])c1` [CBK267777], with 108.793.
As for `CC1(C)Cc2nc(N3CCOCC3)ncc2C(NC(=O)c2cccs2)C1` (stereo not shown) [CBK307369], the “% of control remaining” value turned out to be 65.9873.
On to `O=C(CSc1nnc(C2CC2)o1)Nc1ccc(CN2CCOCC2)cc1` [CBK305015], for which the “% of control remaining” value was found to be 59.9143.
The result for `COc1cc(OC)c(CCNC2CCCc3c2cnn3C)c(OC)c1` (stereo not shown) [CBK304482] reads 38.3576.
Consider `S=C(NCc1ccco1)NCc1cn(-c2ccccc2)nc1-c1ccccc1` [CBK266895], for which the “% of control remaining” value is 80.216.
The result for `c1ccc2c(c1)OCC(COc1ccnc(N3CCCN(CCc4ccc5ccccc5c4)CC3)n1)O2` (stereo not shown) [CBK083983] reads 82.3055.
`CCOC(=O)C(C)n1nc(CC)n2c(cc3sc(C)cc32)c1=O` (stereo not shown) [CBK284123]: the “% of control remaining” value is 88.143.
For `COc1ccc(CN2CCC(Oc3nccnc3OCc3cc(C)on3)CC2)cc1` [CBK082953T], the “% of control remaining” value is 100.475.
The result for `O=C(COc1ccc2ccccc2c1)Nc1ccc(Cl)cc1Cl` [CBK263598] reads 89.8425.
